This note sets out measurements from ChEMBL document CHEMBL4888484, “Replenishing the malaria drug discovery pipeline: Screening and hit evaluation of the MMV Hit Generation Library 1 (HGL1) against asexual blood stage Plasmodium falciparum ,using a nano luciferase reporter read-out” (2022).

The structures appear in SMILES notation. Among all 150,000 compounds or so, about 540 (0.36%) showed an effect of 50% or more. Some of the results follow.

The test system of the assay is Plasmodium falciparum. In words: Primary screen in NF54 nanoGlo assay, in single point, at 2uM, 72h; a lower Z score goes with more inhibition. As to conditions: timepoint 72 hour. It counts as functional, Erythrocyte.
As usually defined, the % Inhibition is the relative decrease from the control value, in per cent. For the compound `Cc1ccccc1Cn1nnc2cc(C(=O)N3CCN(c4ccccn4)CC3)ccc21`, the “% Inhibition” value is given as -8% and the Z score is 0.83.
The corresponding values for `C#CCN(C)[C@H]1CCc2c(c(C(=O)O)nn2CC=C)C1` are -7% and 0.85.
The corresponding values for `CC(=O)N1CCc2cc(S(=O)(=O)N(C)c3cnccn3)ccc21` are -6% and 0.52.
The corresponding values for `C[C@H](OC(=O)Cc1ccc(-c2ccccc2)cc1)C(=O)N1CCCc2ccccc21` are -6% and 0.87.
With `CN(CC1CCC1)C(=O)NCCCN1CCC[C@H]1C(N)=O`, the “% Inhibition” value is -6% and the Z score was 0.9.
The corresponding values for `COCc1ccccc1CNC[C@@H](O)c1cc2ccccc2o1` are -1% and 0.08.
`CCc1n[nH]c(NCc2ccc(OC)cc2)n1`: the “% Inhibition” value turned out to be 18% and the Z score is -2.12.
With `CCCN(C)C[C@H]1CCN(c2ccc3[nH]c(=O)ccc3n2)C1`, the “% Inhibition” value was -4% and the Z score is 0.59.
`Cc1c(C(=O)NCc2ccccc2)nnn1-c1nccs1`: the “% Inhibition” value is -13% and the Z score was 2.47.
The corresponding values for `O=C(NCc1cc(F)cc(F)c1)c1csc(C(=O)NC2CCCC2)n1` are 27% and -3.95.
The corresponding values for `Cc1cc(CN2CCc3ccccc3[C@@H]2CO)nc(N(C)C)n1` are 2% and -0.18.
Regarding `CO[C@H](c1nc(-c2cc3c([nH]c2=O)CCCC3)no1)C1CC1`, the “% Inhibition” value is given as -15% and the Z score stood at 1.56.
The corresponding values for `O=S(=O)(CCc1nc([C@H]2CCOC2)n[nH]1)c1ccccc1` are -4% and 0.87.
The corresponding values for `CC(=O)Nc1cccc(-c2noc(C3CCCC3)n2)c1` are -11% and 1.94.
On to `Cc1cnc(C[C@H]2CCCN(S(=O)(=O)c3cccc4nsnc34)C2)n1C(C)C`, for which the “% Inhibition” value is 3% and the Z score is listed as -0.43.
The corresponding values for `Cn1ccc2ccc(CCC(=O)N3CCOCC3)cc21` are -11% and 1.27.
Regarding `NC(=O)Cn1nc(-c2ccc(N3CCCCC3)cc2)ccc1=O`, the “% Inhibition” value is recorded as -13% and the Z score is on record as 1.71.
The corresponding values for `CCC(C)NC(=O)[C@H]1CN(C(=O)OC(C)(C)C)C[C@@H]1C(=O)NC(C)CC` (stereo partly specified) are -8% and 1.11.
The corresponding values for `COC(=O)C[C@H](c1c(F)cccc1Cl)c1c(C)[nH][nH]c1=O` are -6% and 1.14.
The corresponding values for `Cc1noc(CNC(=O)COc2cccc3c2ccn3C)n1` are 5% and -0.63.
For the compound `CC(C)c1ccnc(N2CCN(C(=O)[C@@H]3CCCO3)CC2)n1`, the “% Inhibition” value was -10% and the Z score is 1.14.
In the case of `COc1ccc(CN2C(=O)[C@@H]3CN(C(N)=O)CCN3C2=O)cc1Br`, the “% Inhibition” value is listed as -7% and the Z score turned out to be 1.12.
The corresponding values for `COc1ccc(OCc2nc(C(=O)N[C@@H](C)c3ccc(F)cc3)co2)cc1` are -1% and 0.1.
The corresponding values for `CC(=O)N1CCN(C(=O)[C@@H]2Cc3cc(Cl)ccc3O2)CC1` are 3% and -0.54.
The corresponding values for `OCC(CO)NC(C1CCNCC1)[C@H]1C[C@H](O)C1` (stereo partly specified) are -9% and 1.41.
Turning to `CN(Cc1ncccn1)c1nc(C2CCCCC2)ns1`, the “% Inhibition” value amounted to 0% and the Z score is reported as -0.06.
Regarding `CCn1c(C(=O)O)cc2c(-c3cccs3)nn(-c3ccccc3)c21`, the “% Inhibition” value is -4% and the Z score is 0.5.
`CCOC1CC1C(=O)Nc1nc(CC)c(C)s1` (stereo unspecified): the “% Inhibition” value is on record as -3% and the Z score amounted to 0.32.
The corresponding values for `COCCN(CCO)C(=O)Nc1ccccc1` are 0% and 0.06.
`CCOc1ccc(-n2nnc(C)c2C(=O)N2CCN(C)CC2)cc1`: the “% Inhibition” value is -16% and the Z score was found to be 1.39.
For `Cc1oc(C(C)(C)C)cc1CN1CCN(S(C)(=O)=O)CC1`, the “% Inhibition” value is recorded as 4% and the Z score is listed as -0.63.
The corresponding values for `O=C(NCCCN1CCCCC1)C1CCN(c2nc3ccccc3n(Cc3ccccc3)c2=O)CC1` are -4% and 0.67.
The corresponding values for `Cc1nn(-c2ncc(NC(=O)c3cccnc3)cn2)c(C)c1C` are 4% and -0.61.
`Cc1cccc2nnc(N3CCC[C@H](C(=O)N4CCN(C)CC4)C3)n12`: the “% Inhibition” value is recorded as -7% and the Z score is on record as 1.24.
The corresponding values for `Cc1nn(C)c(C)c1S(=O)(=O)N1CCN(C(=O)c2ccc(N(C)C)cc2)CC1` are -2% and 0.24.
The corresponding values for `CN(CCO)c1ccc(NCc2ccc(F)cc2Cl)nc1` are -9% and 0.83.
Take `Cc1cc(Cl)cc2c1NC(=O)C21N2CCCC2C(C(=O)c2ccc3ccccc3c2)C12C(=O)Nc1ccccc12` (stereo unspecified): the “% Inhibition” value was -15% and the Z score was found to be 1.99.
Turning to `O=C(c1ccncc1)N1CC[C@H](c2nc3ccccc3[nH]2)C1`, the “% Inhibition” value amounted to 23% and the Z score was -2.58.
For `COC(=O)C[C@H]1CCN(c2ncnc(C)c2C)C1`, the “% Inhibition” value is -17% and the Z score came to 1.87.
The corresponding values for `CN(C(=O)c1coc(C2CCCCC2)n1)[C@@H](CCO)c1ccccc1` are -9% and 1.09.
In the case of `CC(C)Oc1cc(N(C)Cc2nncn2C(C)C)nc(N)n1`, the “% Inhibition” value was -12% and the Z score was determined as 1.34.
As to `CC(C)(C)OC(=O)NCc1cnn(Cc2ccccc2C#N)c1`, the “% Inhibition” value is 5% and the Z score is -0.63.
The corresponding values for `O=C(Nc1ccc(Oc2ccccc2)cc1)/C(=C/c1ccco1)c1ccccc1` are -5% and 0.68.
